From paper PMC12820563, “FoxP3 forms a head-to-head dimer in vivo and stabilizes its multimerization on adjacent microsatellites”
This is one part of the list.

biological target: T1, MBP-FoxP1dN (Mus musculus, UniProt P58462 326-579); experiment: PD-seq (MBP pull-down with sequencing); 20 mM Tris-HCl pH 7.5, 100 mM NaCl, 1.5 mM MgCl2, 0.4 uM protein, 0.1 uM dsDNA library, 30 min, room temperature, amylose pull-down; high values mean tight binding; conditions: protein: recombinant; tags: His6-MBP; chain copies: 2; dsDNA, one strand shown
T1 sequence: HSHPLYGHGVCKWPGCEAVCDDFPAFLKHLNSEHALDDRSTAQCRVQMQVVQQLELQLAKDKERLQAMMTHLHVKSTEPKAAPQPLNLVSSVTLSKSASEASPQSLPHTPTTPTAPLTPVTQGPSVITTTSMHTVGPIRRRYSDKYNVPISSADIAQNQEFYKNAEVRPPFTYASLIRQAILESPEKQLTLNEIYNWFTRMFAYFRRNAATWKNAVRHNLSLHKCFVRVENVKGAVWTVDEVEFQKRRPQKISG
In short: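 A fragment of mouse FoxP3 or FoxP1 without its N-terminus, carrying a His6-MBP tag and produced in E. coli, was combined at 0.4 µM with a 0.1 µM degenerate double-stranded DNA library filled in with Klenow. The mixture sat for 30 min at room temperature in Tris pH 7.5 buffer containing NaCl and MgCl2. Protein–DNA complexes were captured on amylose resin, washed three times, and the DNA was freed with proteinase K, barcoded by PCR and sequenced on Illumina. Binding is expressed as reads-per-million enrichment of pull-down over input, with replicates pooled.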

Sequence | binding signal
GATGATTGTTCTCCCAGCTGATGAATTTAACCACTCGAGTAAACAAATTTTCCTAATCTTTCTGTTCAAGCGCCATCTAC | 0.966 RPM ratio (pull-down/input)
GATGATTGTTCTCCCAGCTGATGAATTACCTATATCGAGTAAACAAATTTTCCTAATCTTTCTGTTCAAGCGCCATCTAC | 1.08 RPM ratio (pull-down/input)
GATGATTGTTCTCCCAGCTGATGAATTTGCATGGTCGAGTAAACAAATTTTCCTAATCTTTCTGTTCAAGCGCCATCTAC | 1.02 RPM ratio (pull-down/input)
GATGATTGTTCTCCCAGCTGATGAATTCCGTGGCTCGAGTAAACAAATTTTCCTAATCTTTCTGTTCAAGCGCCATCTAC | 0.767 RPM ratio (pull-down/input)
GATGATTGTTCTCCCAGCTGATGAATTTATAACGTCGAGTAAACAAATTTTCCTAATCTTTCTGTTCAAGCGCCATCTAC | 1.14 RPM ratio (pull-down/input)
GATGATTGTTCTCCCAGCTGATGAATTCAGGGCCTCGAGTAAACAAATTTTCCTAATCTTTCTGTTCAAGCGCCATCTAC | 0.863 RPM ratio (pull-down/input)
GATGATTGTTCTCCCAGCTGATGAATTCACACCTTCGAGTAAACAAATTTTCCTAATCTTTCTGTTCAAGCGCCATCTAC | 0.864 RPM ratio (pull-down/input)
GATGATTGTTCTCCCAGCTGATGAATTCACTGGCTCGAGTAAACAAATTTTCCTAATCTTTCTGTTCAAGCGCCATCTAC | 0.81 RPM ratio (pull-down/input)
GATGATTGTTCTCCCAGCTGATGAATTAGCCGGATCGAGTAAACAAATTTTCCTAATCTTTCTGTTCAAGCGCCATCTAC | 0.832 RPM ratio (pull-down/input)
GATGATTGTTCTCCCAGCTGATGAATTACGGCAATCGAGTAAACAAATTTTCCTAATCTTTCTGTTCAAGCGCCATCTAC | 1.13 RPM ratio (pull-down/input)
GATGATTGTTCTCCCAGCTGATGAATTTCACTAGTCGAGTAAACAAATTTTCCTAATCTTTCTGTTCAAGCGCCATCTAC | 0.76 RPM ratio (pull-down/input)
GATGATTGTTCTCCCAGCTGATGAATTACTAGGGTCGAGTAAACAAATTTTCCTAATCTTTCTGTTCAAGCGCCATCTAC | 0.919 RPM ratio (pull-down/input)
GATGATTGTTCTCCCAGCTGATGAATTTGGCCCCTCGAGTAAACAAATTTTCCTAATCTTTCTGTTCAAGCGCCATCTAC | 0.832 RPM ratio (pull-down/input)
GATGATTGTTCTCCCAGCTGATGAATTTTGAATATCGAGTAAACAAATTTTCCTAATCTTTCTGTTCAAGCGCCATCTAC | 1.07 RPM ratio (pull-down/input)
GATGATTGTTCTCCCAGCTGATGAATTGATGTCATCGAGTAAACAAATTTTCCTAATCTTTCTGTTCAAGCGCCATCTAC | 1.47 RPM ratio (pull-down/input)
GATGATTGTTCTCCCAGCTGATGAATTATCTAATTCGAGTAAACAAATTTTCCTAATCTTTCTGTTCAAGCGCCATCTAC | 1.06 RPM ratio (pull-down/input)
GATGATTGTTCTCCCAGCTGATGAATTAGGGTCCTCGAGTAAACAAATTTTCCTAATCTTTCTGTTCAAGCGCCATCTAC | 0.785 RPM ratio (pull-down/input)
GATGATTGTTCTCCCAGCTGATGAATTTCTCTAATCGAGTAAACAAATTTTCCTAATCTTTCTGTTCAAGCGCCATCTAC | 1.09 RPM ratio (pull-down/input)
GATGATTGTTCTCCCAGCTGATGAATTATTCTCTTCGAGTAAACAAATTTTCCTAATCTTTCTGTTCAAGCGCCATCTAC | 1.14 RPM ratio (pull-down/input)
GATGATTGTTCTCCCAGCTGATGAATTAGAAGGGTCGAGTAAACAAATTTTCCTAATCTTTCTGTTCAAGCGCCATCTAC | 0.915 RPM ratio (pull-down/input)
GATGATTGTTCTCCCAGCTGATGAATTGGTGACGTCGAGTAAACAAATTTTCCTAATCTTTCTGTTCAAGCGCCATCTAC | 0.991 RPM ratio (pull-down/input)

Sequence | binding signal
GATGATTGTTCTCCCAGCTGATGAATTTATGGTCTCGAGTAAACAAATTTTCCTAATCTTTCTGTTCAAGCGCCATCTAC | 1.03 RPM ratio (pull-down/input)
GATGATTGTTCTCCCAGCTGATGAATTAATACTCTCGAGTAAACAAATTTTCCTAATCTTTCTGTTCAAGCGCCATCTAC | 0.985 RPM ratio (pull-down/input)
GATGATTGTTCTCCCAGCTGATGAATTCCTTTTGTCGAGTAAACAAATTTTCCTAATCTTTCTGTTCAAGCGCCATCTAC | 0.864 RPM ratio (pull-down/input)
GATGATTGTTCTCCCAGCTGATGAATTTTCTTGATCGAGTAAACAAATTTTCCTAATCTTTCTGTTCAAGCGCCATCTAC | 0.94 RPM ratio (pull-down/input)
GATGATTGTTCTCCCAGCTGATGAATTACGGGCCTCGAGTAAACAAATTTTCCTAATCTTTCTGTTCAAGCGCCATCTAC | 0.904 RPM ratio (pull-down/input)
GATGATTGTTCTCCCAGCTGATGAATTAAAATGTTCGAGTAAACAAATTTTCCTAATCTTTCTGTTCAAGCGCCATCTAC | 0.98 RPM ratio (pull-down/input)
GATGATTGTTCTCCCAGCTGATGAATTGGCGGGGTCGAGTAAACAAATTTTCCTAATCTTTCTGTTCAAGCGCCATCTAC | 0.738 RPM ratio (pull-down/input)
GATGATTGTTCTCCCAGCTGATGAATTGGTAAAATCGAGTAAACAAATTTTCCTAATCTTTCTGTTCAAGCGCCATCTAC | 1.1 RPM ratio (pull-down/input)
GATGATTGTTCTCCCAGCTGATGAATTTCCATTCTCGAGTAAACAAATTTTCCTAATCTTTCTGTTCAAGCGCCATCTAC | 0.823 RPM ratio (pull-down/input)
GATGATTGTTCTCCCAGCTGATGAATTTGGGACGTCGAGTAAACAAATTTTCCTAATCTTTCTGTTCAAGCGCCATCTAC | 0.892 RPM ratio (pull-down/input)
GATGATTGTTCTCCCAGCTGATGAATTGTTGAGGTCGAGTAAACAAATTTTCCTAATCTTTCTGTTCAAGCGCCATCTAC | 1.03 RPM ratio (pull-down/input)
GATGATTGTTCTCCCAGCTGATGAATTATATCGTTCGAGTAAACAAATTTTCCTAATCTTTCTGTTCAAGCGCCATCTAC | 1.07 RPM ratio (pull-down/input)
GATGATTGTTCTCCCAGCTGATGAATTTGGTACATCGAGTAAACAAATTTTCCTAATCTTTCTGTTCAAGCGCCATCTAC | 1.15 RPM ratio (pull-down/input)
GATGATTGTTCTCCCAGCTGATGAATTCAAACCGTCGAGTAAACAAATTTTCCTAATCTTTCTGTTCAAGCGCCATCTAC | 0.855 RPM ratio (pull-down/input)
GATGATTGTTCTCCCAGCTGATGAATTATACCCTTCGAGTAAACAAATTTTCCTAATCTTTCTGTTCAAGCGCCATCTAC | 0.942 RPM ratio (pull-down/input)
GATGATTGTTCTCCCAGCTGATGAATTCCGTAAGTCGAGTAAACAAATTTTCCTAATCTTTCTGTTCAAGCGCCATCTAC | 0.864 RPM ratio (pull-down/input)
GATGATTGTTCTCCCAGCTGATGAATTTTACAATTCGAGTAAACAAATTTTCCTAATCTTTCTGTTCAAGCGCCATCTAC | 0.936 RPM ratio (pull-down/input)
GATGATTGTTCTCCCAGCTGATGAATTCGCTGACTCGAGTAAACAAATTTTCCTAATCTTTCTGTTCAAGCGCCATCTAC | 0.87 RPM ratio (pull-down/input)
GATGATTGTTCTCCCAGCTGATGAATTACGAGCATCGAGTAAACAAATTTTCCTAATCTTTCTGTTCAAGCGCCATCTAC | 1.17 RPM ratio (pull-down/input)
GATGATTGTTCTCCCAGCTGATGAATTACGTTCGTCGAGTAAACAAATTTTCCTAATCTTTCTGTTCAAGCGCCATCTAC | 0.986 RPM ratio (pull-down/input)
GATGATTGTTCTCCCAGCTGATGAATTACCCTTCTCGAGTAAACAAATTTTCCTAATCTTTCTGTTCAAGCGCCATCTAC | 0.941 RPM ratio (pull-down/input)

Sequence | binding signal
GATGATTGTTCTCCCAGCTGATGAATTAGACGCGTCGAGTAAACAAATTTTCCTAATCTTTCTGTTCAAGCGCCATCTAC | 0.99 RPM ratio (pull-down/input)
GATGATTGTTCTCCCAGCTGATGAATTAGTATACTCGAGTAAACAAATTTTCCTAATCTTTCTGTTCAAGCGCCATCTAC | 1.23 RPM ratio (pull-down/input)
GATGATTGTTCTCCCAGCTGATGAATTACGAAGCTCGAGTAAACAAATTTTCCTAATCTTTCTGTTCAAGCGCCATCTAC | 0.887 RPM ratio (pull-down/input)
GATGATTGTTCTCCCAGCTGATGAATTTCGGACCTCGAGTAAACAAATTTTCCTAATCTTTCTGTTCAAGCGCCATCTAC | 0.742 RPM ratio (pull-down/input)
GATGATTGTTCTCCCAGCTGATGAATTAAGACCTTCGAGTAAACAAATTTTCCTAATCTTTCTGTTCAAGCGCCATCTAC | 0.838 RPM ratio (pull-down/input)
GATGATTGTTCTCCCAGCTGATGAATTCGTCCGCTCGAGTAAACAAATTTTCCTAATCTTTCTGTTCAAGCGCCATCTAC | 0.79 RPM ratio (pull-down/input)
GATGATTGTTCTCCCAGCTGATGAATTGAGTCTCTCGAGTAAACAAATTTTCCTAATCTTTCTGTTCAAGCGCCATCTAC | 0.782 RPM ratio (pull-down/input)
GATGATTGTTCTCCCAGCTGATGAATTCTCCGAGTCGAGTAAACAAATTTTCCTAATCTTTCTGTTCAAGCGCCATCTAC | 0.774 RPM ratio (pull-down/input)
GATGATTGTTCTCCCAGCTGATGAATTCTCTAGTTCGAGTAAACAAATTTTCCTAATCTTTCTGTTCAAGCGCCATCTAC | 0.948 RPM ratio (pull-down/input)
GATGATTGTTCTCCCAGCTGATGAATTCGACGGCTCGAGTAAACAAATTTTCCTAATCTTTCTGTTCAAGCGCCATCTAC | 0.78 RPM ratio (pull-down/input)
GATGATTGTTCTCCCAGCTGATGAATTGAAGAAGTCGAGTAAACAAATTTTCCTAATCTTTCTGTTCAAGCGCCATCTAC | 0.849 RPM ratio (pull-down/input)
GATGATTGTTCTCCCAGCTGATGAATTGCTCTTCTCGAGTAAACAAATTTTCCTAATCTTTCTGTTCAAGCGCCATCTAC | 0.889 RPM ratio (pull-down/input)
GATGATTGTTCTCCCAGCTGATGAATTTCGTGTGTCGAGTAAACAAATTTTCCTAATCTTTCTGTTCAAGCGCCATCTAC | 0.976 RPM ratio (pull-down/input)
GATGATTGTTCTCCCAGCTGATGAATTAGCATCATCGAGTAAACAAATTTTCCTAATCTTTCTGTTCAAGCGCCATCTAC | 1.37 RPM ratio (pull-down/input)
GATGATTGTTCTCCCAGCTGATGAATTGCGCCTCTCGAGTAAACAAATTTTCCTAATCTTTCTGTTCAAGCGCCATCTAC | 1.13 RPM ratio (pull-down/input)
GATGATTGTTCTCCCAGCTGATGAATTTTTCCGGTCGAGTAAACAAATTTTCCTAATCTTTCTGTTCAAGCGCCATCTAC | 0.832 RPM ratio (pull-down/input)
GATGATTGTTCTCCCAGCTGATGAATTCTAAAGATCGAGTAAACAAATTTTCCTAATCTTTCTGTTCAAGCGCCATCTAC | 0.85 RPM ratio (pull-down/input)
GATGATTGTTCTCCCAGCTGATGAATTACAGAGGTCGAGTAAACAAATTTTCCTAATCTTTCTGTTCAAGCGCCATCTAC | 0.951 RPM ratio (pull-down/input)
GATGATTGTTCTCCCAGCTGATGAATTCTGACTGTCGAGTAAACAAATTTTCCTAATCTTTCTGTTCAAGCGCCATCTAC | 0.811 RPM ratio (pull-down/input)
GATGATTGTTCTCCCAGCTGATGAATTTCCTCGTTCGAGTAAACAAATTTTCCTAATCTTTCTGTTCAAGCGCCATCTAC | 0.899 RPM ratio (pull-down/input)
GATGATTGTTCTCCCAGCTGATGAATTAACAGCCTCGAGTAAACAAATTTTCCTAATCTTTCTGTTCAAGCGCCATCTAC | 0.996 RPM ratio (pull-down/input)
